{"source": "the supplement of paper PMC12217912", "parents": {"B1": {"name": "TEV protease; numbered along this chain (parent)", "chain": "MGESLFKGPRDYNPISSSICHLTNESDGHTTSLYGIGFGPFIITNKHLFRRNNGTLVVQSLHGVFKVKDTTTLQQHLVDGRDMIIIRMPKDFPPFPQKLKFREPQREERICLVTTNFQTKSMSSMVSDTSCTFPSGDGIFWKHWIQTKDGQCGSPLVSTRDGFIVGIHSASNFTNTNNYFTSVPKNFMELLTNQEAQQWVSGWRLNADSVLWGGHKVFMVKPEEPFQPVKEATQL"}}, "note": "The other results are listed elsewhere or left out. The full chains were built here from the parent and the listed change. Inactive controls read about 0.05.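 Further: Bxb1 expression induced with 0.2% (w/v) L-rhamnose at OD600 near 0.5, cultures sampled hourly, flipped fraction per protease–substrate barcode pair counted by paired-end Illumina sequencing.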"}
{"variants_of": "B1", "experiment": "raw area under fraction-flipped curve 0-4 h after induction (AUC4h, not background-subtracted), DNA-recorder readout of cleavage of the substrate (dimensionless); higher = more cleavage of the substrate by the protease variant", "details": "temperature: 34 °C; time window: 0-4 h after rhamnose induction"}
{"variant": "D82M", "area with substrate ENLYFES": 0.0515, "area with substrate ENLYFFS": 0.0713, "area with substrate ENLYFIS": 0.0456, "area with substrate ENLYFLS": 0.0588, "area with substrate ENLYFNS": 0.0715, "area with substrate ENLYFSS": 0.0356, "area with substrate ENLYFTS": 0.0451, "area with substrate ENLYFWS": 0.0451}
{"variant": "L190F", "area with substrate ENLYFES": 0.0648, "area with substrate ENLYFIS": 0.0489, "area with substrate ENLYFKS": 0.0558, "area with substrate ENLYFMS": 0.0662, "area with substrate ENLYFYS": 0.0476}
{"variant": "L190D", "area with substrate ENLYFES": 0.058, "area with substrate ENLYFFS": 0.0321, "area with substrate ENLYFGS": 0.0591, "area with substrate ENLYFIS": 0.0621, "area with substrate ENLYFLS": 0.0553, "area with substrate ENLYFMS": 0.0451, "area with substrate ENLYFNS": 0.0504, "area with substrate ENLYFSS": 0.0624, "area with substrate ENLYFTS": 0.0528, "area with substrate ENLYFYS": 0.0565}
{"variant": "T233P", "area with substrate ENLYFES": 0.0499, "area with substrate ENLYFFS": 0.0672, "area with substrate ENLYFGS": 0.0464, "area with substrate ENLYFIS": 0.0289, "area with substrate ENLYFKS": 0.0652, "area with substrate ENLYFWS": 0.059}
{"variant": "F65I", "area with substrate ENLYFES": 0.0635, "area with substrate ENLYFFS": 0.0634, "area with substrate ENLYFHS": 0.062, "area with substrate ENLYFIS": 0.0591, "area with substrate ENLYFKS": 0.0628, "area with substrate ENLYFLS": 0.0558, "area with substrate ENLYFMS": 0.0711, "area with substrate ENLYFPS": 0.0251, "area with substrate ENLYFRS": 0.0601, "area with substrate ENLYFTS": 0.0957, "area with substrate ENLYFVS": 0.0655, "area with substrate ENLYFWS": 0.0517}
{"variant": "N186F", "area with substrate ENLYFES": 0.073, "area with substrate ENLYFIS": 0.0384, "area with substrate ENLYFMS": 0.0652, "area with substrate ENLYFPS": 0.0689, "area with substrate ENLYFVS": 0.0547, "area with substrate ENLYFYS": 0.0806}
{"variant": "K90A", "area with substrate ENLYFES": 0.0771, "area with substrate ENLYFFS": 0.0727, "area with substrate ENLYFHS": 0.0694, "area with substrate ENLYFKS": 0.0911, "area with substrate ENLYFRS": 0.0592}
{"variant": "L5T", "area with substrate ENLYFES": 0.0503, "area with substrate ENLYFGS": 0.065, "area with substrate ENLYFHS": 0.0699, "area with substrate ENLYFMS": 0.0684, "area with substrate ENLYFNS": 0.062, "area with substrate ENLYFPS": 0.0607, "area with substrate ENLYFRS": 0.0567, "area with substrate ENLYFSS": 0.0579, "area with substrate ENLYFTS": 0.116, "area with substrate ENLYFVS": 0.0354, "area with substrate ENLYFWS": 0.0528}
{"variant": "T181K", "area with substrate ENLYFES": 0.0573, "area with substrate ENLYFFS": 0.0556, "area with substrate ENLYFGS": 0.0485, "area with substrate ENLYFHS": 0.0557, "area with substrate ENLYFKS": 0.0596, "area with substrate ENLYFMS": 0.0533, "area with substrate ENLYFPS": 0.0696, "area with substrate ENLYFSS": 0.0565}
{"variant": "T181C", "area with substrate ENLYFES": 0.0625, "area with substrate ENLYFIS": 0.0363}
{"variant": "V165L", "area with substrate ENLYFES": 0.065, "area with substrate ENLYFHS": 0.0605, "area with substrate ENLYFIS": 0.0479, "area with substrate ENLYFTS": 0.0449}
{"variant": "P93W", "area with substrate ENLYFES": 0.0568, "area with substrate ENLYFFS": 0.0681, "area with substrate ENLYFHS": 0.0416, "area with substrate ENLYFIS": 0.0609, "area with substrate ENLYFKS": 0.0648, "area with substrate ENLYFNS": 0.0617, "area with substrate ENLYFPS": 0.0583, "area with substrate ENLYFRS": 0.0603}
{"variant": "G214W", "area with substrate ENLYFES": 0.0461, "area with substrate ENLYFHS": 0.0595, "area with substrate ENLYFIS": 0.074, "area with substrate ENLYFWS": 0.0529}
{"variant": "E108G", "area with substrate ENLYFES": 0.057, "area with substrate ENLYFFS": 0.0697, "area with substrate ENLYFIS": 0.0422, "area with substrate ENLYFPS": 0.0552, "area with substrate ENLYFTS": 0.06}
{"variant": "M83L", "area with substrate ENLYFES": 0.0665, "area with substrate ENLYFFS": 0.0627, "area with substrate ENLYFHS": 0.0512, "area with substrate ENLYFLS": 0.0735, "area with substrate ENLYFMS": 0.0602, "area with substrate ENLYFNS": 0.0429, "area with substrate ENLYFPS": 0.0584, "area with substrate ENLYFRS": 0.0539, "area with substrate ENLYFVS": 0.102, "area with substrate ENLYFYS": 0.0506}
{"variant": "S158L", "area with substrate ENLYFES": 0.0473, "area with substrate ENLYFHS": 0.0541, "area with substrate ENLYFIS": 0.0409, "area with substrate ENLYFKS": 0.0507, "area with substrate ENLYFNS": 0.0545, "area with substrate ENLYFSS": 0.0713, "area with substrate ENLYFTS": 0.0491, "area with substrate ENLYFVS": 0.05, "area with substrate ENLYFWS": 0.0444}
{"variant": "V217L", "area with substrate ENLYFES": 0.0654, "area with substrate ENLYFIS": 0.0511, "area with substrate ENLYFKS": 0.0631, "area with substrate ENLYFLS": 0.0574, "area with substrate ENLYFMS": 0.0705, "area with substrate ENLYFTS": 0.0581, "area with substrate ENLYFWS": 0.0624}
{"variant": "V217E", "area with substrate ENLYFES": 0.0577, "area with substrate ENLYFIS": 0.0496, "area with substrate ENLYFMS": 0.0538, "area with substrate ENLYFNS": 0.0643, "area with substrate ENLYFPS": 0.0736, "area with substrate ENLYFRS": 0.0586}
{"variant": "Q97T", "area with substrate ENLYFES": 0.069, "area with substrate ENLYFFS": 0.0653, "area with substrate ENLYFIS": 0.0545, "area with substrate ENLYFPS": 0.0575, "area with substrate ENLYFRS": 0.0538, "area with substrate ENLYFTS": 0.0431}
{"variant": "R102E", "area with substrate ENLYFES": 0.0489, "area with substrate ENLYFFS": 0.0488, "area with substrate ENLYFHS": 0.0454, "area with substrate ENLYFLS": 0.0302, "area with substrate ENLYFMS": 0.0435, "area with substrate ENLYFPS": 0.0525, "area with substrate ENLYFTS": 0.0499, "area with substrate ENLYFVS": 0.0313}
{"variant": "R51N", "area with substrate ENLYFES": 0.0737, "area with substrate ENLYFKS": 0.0612, "area with substrate ENLYFNS": 0.074}
{"variant": "M88L", "area with substrate ENLYFES": 0.0537, "area with substrate ENLYFHS": 0.0585, "area with substrate ENLYFKS": 0.0666, "area with substrate ENLYFPS": 0.0529, "area with substrate ENLYFTS": 0.0542, "area with substrate ENLYFVS": 0.0469, "area with substrate ENLYFWS": 0.0431}
{"variant": "E195S", "area with substrate ENLYFES": 0.0637, "area with substrate ENLYFFS": 0.0695, "area with substrate ENLYFIS": 0.0444, "area with substrate ENLYFMS": 0.0653, "area with substrate ENLYFPS": 0.0584, "area with substrate ENLYFRS": 0.053, "area with substrate ENLYFTS": 0.0544, "area with substrate ENLYFYS": 0.0815}
